According to PubChem BioAssay AID624202 (National Center for Advancing Translational Sciences (NCATS), 2012):
Hit rate of the full screen: of about 380,000 compounds, about 4,000 (1.1%) were called active. This list was built around the results that the source calls inconclusive (neither active nor inactive); the mix of calls is not that of the screen. Calls come from the whole dose curve; as a rule, active = well fitted activation curve with a large enough effect; inconclusive = small, poorly fitted or top-dose-only effect; inactive = no such curve, though single readings can be large or run the other way. Where the call is inconclusive, the potency comes from a doubtful curve fit.

Assay: qHTS Assay to Identify Small Molecule Activators of BRCA1 Expression; note: nearly all actives have a fitted effect of over 80% in size
Conditions: MCF7-BRCA1-FFLuc reporter, luminescence, 48 h; activation: at 46.1 µM (top of the series), scaled: vehicle 0%, 10 µM genistein 100% unless noted
How it was run: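 Using MCF7 cells harboring a BRCA1 firefly luciferase reporter, plated 2 h before compound pinning, the screen measured luminescence after 48 h incubation. Responses were normalized to DMSO and 10 microM genistein, then fitted for concentration-effect.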
Potency is the fitted concentration of half-maximal effect; tags give direction and shape of the fitted curve.

Compound	Potency	activation
Cc1cc(=O)n2nc(-c3ccc(C(F)(F)F)cc3)sc2n1	inconclusive: 2 µM [activator, full curve, poor fit]	
O=C(OCCOc1ccccc1)c1n[nH]c2ccccc12	inconclusive: 2 µM [activator, partial curve, poor fit]	
Cc1ccsc1/C=N/NC(=O)c1ccc2ccccc2c1	inconclusive: 3.98 µM [activator, partial curve, poor fit]	
CCOC(=O)C1(C)C=C(Nc2ccc(C(N)=O)cc2)C(=O)N1c1ccccc1 (centres undefined)	inconclusive: 11.2 µM [activator, partial curve, poor fit]	
C(=C\c1ccccc1)/C=N/Nc1nc2ccccc2[nH]1	inconclusive: 0.631 µM [activator, full curve, poor fit]	
CC(=O)c1ccc(NC(=O)Nc2ccc(Cl)cc2)cc1	inconclusive: 2.51 µM [activator, full curve, poor fit]	
O=C(Nc1ccc(Cl)c(Cl)c1)c1ccc2c(c1)OCO2	inconclusive: 0.631 µM [activator, full curve, poor fit]	
Cc1cc(/C=C2/C(=N)N3C(=NC2=O)SN=C3S(C)(=O)=O)c(C)n1-c1ccc(F)cc1	active: 7.94 µM	
CCCc1noc(-c2ccc(N3CCCCC3)c([N+](=O)[O-])c2)n1	active: 7.08 µM	
CCc1ccc(N=c2c([N+](=O)[O-])nn(-c3ccc4c(c3)OCCO4)n2O)cc1	active: 3.98 µM	
CC(C)c1ccc(NC(=O)Nc2nc(CN)cs2)cc1	inconclusive: 3.16 µM [activator, full curve, poor fit]	
COc1ccc(CN2CCN(C(=O)C3CCC(CNS(=O)(=O)c4ccc(C)cc4)CC3)CC2)c(OC)c1OC (centres undefined)	inactive	
O=[N+]([O-])c1ccc(-n2cc(-c3ccccc3)nn2)cc1	inconclusive: 35.5 µM [activator, single point]	
S=c1[nH]nc(SCc2ccccc2)c2[nH]cnc12	active: 3.55 µM	
Cn1c(COc2ccc(F)cc2)nc2ccccc21	inconclusive: 8.91 µM [activator, partial curve, poor fit]	
CC(=O)c1cc2ccccc2c2ccccc12	inactive	
Fc1ccc(Cc2nnc(-c3cccs3)o2)cc1	active: 10 µM	
COc1cccc(NC(=O)c2ccc(-c3ccccc3[N+](=O)[O-])o2)c1	inconclusive: 22.4 µM [activator, single point]	
O=C(CSc1nnc(-c2ccccc2Br)o1)N1CCOCC1	inconclusive: 2.51 µM [activator, full curve, poor fit]	
CCC(C)(C)NC(=O)CCCSc1nc2ccccc2s1	active: 3.55 µM	
O=C(Nc1ccc(Cl)cc1)Nc1cc(S(=O)(=O)N2CCOCC2)ccc1N1CCCC1	inactive	
Cc1cccc(NC(=O)c2cc(=O)c3ccccc3o2)n1	inactive	
CC(=O)Cn1cnc2c(sc3nc(C)cc(C)c32)c1=O	active: 11.2 µM	
CCCC(=O)NC(c1cccc([N+](=O)[O-])c1)c1ccc2cccnc2c1O (centres undefined)	inactive	
COc1ccc(-c2csc(NC(=O)C3CSC4(C)CCC(=O)N34)n2)c(OC)c1 (centres undefined)	inactive	

Compound	Potency	activation
C[C@H](CO)N1C[C@H](C)[C@@H](CN(C)S(=O)(=O)c2cccc(F)c2)OCc2cn(nn2)CCCC1=O	inactive	
O=[N+]([O-])c1ccc(O/N=[N+](\[O-])N2CCCC2)c([N+](=O)[O-])c1	inactive	
Clc1ccccc1OCc1nc(-c2ccccn2)no1	inconclusive: 0.631 µM [activator, full curve, poor fit]	
CNC(=O)NC(=O)C(C)OC(=O)c1c2c(nc3ccccc13)/C(=C/c1cccs1)CC2 (centres undefined)	inconclusive: 35.5 µM [activator, single point]	
COc1ccccc1NC(=S)NNC(=O)c1nn(C)c(C)c1Br	inconclusive: 25.1 µM [activator, single point]	
O=C(NCCc1ccc2c(c1)OCCO2)c1ccccn1	inconclusive: 1.41 µM [activator, full curve, poor fit]	
CN(C)CCNC(=O)C(=O)Nc1cc2c3c(c1)CCN3C(=O)CC2	inactive	
Cc1cccc2nc(COc3ccc(Cl)c4cccnc34)cn12	inconclusive: 10 µM [activator, partial curve, poor fit]	
COc1ccc(-c2nc3ccc(NC(C)=O)cc3c(=O)n2Cc2ccccc2)cc1COc1ccc(NC(C)=O)cc1	inactive	
C/C(=N\Nc1cccc(C(=O)O)c1)c1ccc2c(c1)Nc1ccccc1S2	active: 7.08 µM	
O=C(NNC(=S)NC1CCCCC1)c1ccc2c(c1)OCO2	inactive	
Cc1ccc2c(CN(C)Cc3cccc(F)c3)cc(=O)oc2c1	inconclusive: 11.2 µM [activator, partial curve, poor fit]	
O=C(/C=C/c1ccco1)NCC(=O)N/N=C/c1ccc([N+](=O)[O-])cc1	inactive	
S=C(c1ccc(-c2ccccc2)o1)N1CCCCC1	active: 3.98 µM	
CCOc1ccc(OCc2cccc(C(=O)N3CCCC3)c2)cc1		inconclusive: -89.4% [activator]
COc1ccc2cc(C(=O)NCc3ccco3)c(=O)oc2c1	inconclusive: 14.1 µM [activator, partial curve, poor fit]	
COc1ccc(OC)c(NC(=O)CCN2CCN(c3ccccc3)CC2)c1	inactive	
Cc1cccc(Oc2nc3c(c(=O)n(C)c(=O)n3C)n2C)c1	inactive	
O=C(CCCOc1ccc(Cl)cc1Cl)Nc1nnc(C2CC2)s1	inactive	
CC1(C)CCc2cc(S(=O)(=O)N3CCN(S(=O)(=O)c4c(F)cccc4F)CC3)ccc2O1	active: 7.94 µM	
CCC(C)c1ccc(-c2cc(C(=O)OCC(=O)Nc3cc(C)on3)c3ccccc3n2)cc1 (centres undefined)	inconclusive: 0.562 µM [activator, full curve, poor fit]	
CC(C)=CC(=O)Nc1ccc(Br)cc1	inconclusive: 2 µM [activator, full curve, poor fit]	
O=C(CNC(=O)c1cn2ccccc2n1)Nc1ccc(F)c(F)c1	inconclusive: 15.8 µM [activator, partial curve, poor fit]	
COc1ccc(CC2C(=O)NC(C)C(=O)N(C)C3Cc4ccc(cc4)Oc4cc(ccc4O)CC(C(=O)NC(C)C(=O)NC(C)C(=O)N2C)N(C)C3=O)cc1 (centres undefined)		inconclusive: -91.3% [activator]
CNc1cnn(-c2ccc(C)cc2)c(=O)c1Cl	inconclusive: 1.58 µM [activator, partial curve, poor fit]	

Compound	Potency	activation
Cc1ccc(-n2cc(-c3ccccc3)[nH]c2=O)cc1F	inconclusive: 2.51 µM [activator, full curve, poor fit]	
CCOC(=O)c1c(C)[nH]c(C(=O)OCc2ccc(F)cc2)c1C	inconclusive: 2.24 µM [activator, full curve, poor fit]	
Cc1ccc(CCNC(=O)NC(C)(C)C)cc1	inconclusive: 15.8 µM [activator, partial curve, poor fit]	
Brc1ccc(OCc2nc3ccccc3[nH]2)cc1	inconclusive: 2.82 µM [activator, partial curve, poor fit]	
CC(C)(C)C(=O)Nc1ccc(-c2cc3cc(Cl)ccc3o2)cc1	inconclusive: 0.631 µM [activator, full curve, poor fit]	
O=C(O)c1ccc2noc(-c3ccccc3)c2c1	active: 3.98 µM	
COc1ccc(OC)c(/C=N\NC(=O)c2cc3c(ccc4ccccc43)o2)c1	inactive	
CCCCc1ccc(Nc2ncnc3nc[nH]c23)cc1	active: 4.47 µM	
CCOC(=O)c1ccc(/[N+]([O-])=C/c2ccccc2)cc1	inconclusive: 7.08 µM [activator, partial curve, poor fit]	
CC(=O)N1CCc2cc(S(=O)(=O)NCCC(=O)Nc3ccc4c(c3)OCCO4)ccc21	active: 11.2 µM	
COc1ccc(C(=O)OCC(=O)c2cc(OC)ccc2OC)c(OC)c1	inactive	
CC(C)Nc1oc(-c2cccc3ccccc23)nc1C#N	active: 14.1 µM	
OCCOCCNc1ncnc2c1cnn2-c1ccccc1	inconclusive: 2.82 µM [activator, full curve, poor fit]	
O=c1c(-c2ccc(F)cc2)coc2c3c(ccc12)OCCO3	inconclusive: 2 µM [activator, full curve, poor fit]	
COc1ccc2cc(C(N)=O)/c(=N\NC(=O)c3ccccc3)oc2c1	inconclusive: 0.501 µM [activator, full curve, poor fit]	
Cc1ccc(OCCNC(=O)c2ccco2)cc1C	inconclusive: 12.6 µM [activator, partial curve, poor fit]	
C/C(=N\NC(=O)c1ccn(C)n1)c1ccc(NC(=O)C2CCC2)cc1	inconclusive: 35.5 µM [activator, single point]	
Nc1cnccc1Oc1cccc(C(F)(F)F)c1	inactive	
C/C(N)=C(/C#N)C(=O)CSc1nc2ccccc2[nH]1	active: 7.94 µM	
COc1cccc(NC(=O)CC(=O)c2ccc([N+](=O)[O-])cc2)c1	active: 11.2 µM	
O=C(O)c1cc(-c2ccc3ccccc3c2)nc2ccc(F)cc12	inconclusive: 12.6 µM [activator, partial curve, poor fit]	
O=C(COc1ccc(Cl)cc1Br)NC(=O)NC1CCCC1	active: 12.6 µM	
O=C(O)c1cncc(C#CCC2CCCCC2)c1	inconclusive: 7.94 µM [activator, partial curve, poor fit]	
Cc1cccc(NC(=O)CCS(=O)(=O)c2ccccc2)c1	inactive	
